Test results taken from patent US20220170028A1 (CUGENE, published 2022).

T1: high affinity trimeric IL-2 receptor (IL-2Rαβγ) on human CD4+ Treg cells (CD4+/Foxp3+/CD25high) of PBMC (human, UniProt P01589 22-272; P14784 27-551; P31785 23-369)
T1 sequence (looked up) 1: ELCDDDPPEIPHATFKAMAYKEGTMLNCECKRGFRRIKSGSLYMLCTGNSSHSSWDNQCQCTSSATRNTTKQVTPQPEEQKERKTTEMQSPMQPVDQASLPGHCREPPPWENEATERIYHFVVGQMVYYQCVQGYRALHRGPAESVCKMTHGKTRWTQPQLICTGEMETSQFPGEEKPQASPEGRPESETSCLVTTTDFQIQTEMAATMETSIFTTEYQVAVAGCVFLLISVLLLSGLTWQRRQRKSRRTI
T1 sequence (looked up) 2: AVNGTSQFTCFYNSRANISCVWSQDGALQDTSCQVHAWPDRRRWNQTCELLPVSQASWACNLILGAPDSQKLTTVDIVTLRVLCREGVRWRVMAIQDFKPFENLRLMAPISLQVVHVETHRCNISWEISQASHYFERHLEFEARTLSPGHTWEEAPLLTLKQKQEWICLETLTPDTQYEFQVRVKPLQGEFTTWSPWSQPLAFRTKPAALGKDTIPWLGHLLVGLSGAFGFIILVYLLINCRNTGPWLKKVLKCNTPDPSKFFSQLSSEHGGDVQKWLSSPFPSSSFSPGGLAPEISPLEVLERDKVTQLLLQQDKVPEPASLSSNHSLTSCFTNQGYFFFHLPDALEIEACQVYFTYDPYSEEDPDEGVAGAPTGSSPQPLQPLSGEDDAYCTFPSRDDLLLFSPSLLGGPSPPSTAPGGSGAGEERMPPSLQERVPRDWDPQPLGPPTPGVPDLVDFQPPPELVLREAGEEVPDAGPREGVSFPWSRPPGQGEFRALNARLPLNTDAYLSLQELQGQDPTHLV
T1 sequence (looked up) 3: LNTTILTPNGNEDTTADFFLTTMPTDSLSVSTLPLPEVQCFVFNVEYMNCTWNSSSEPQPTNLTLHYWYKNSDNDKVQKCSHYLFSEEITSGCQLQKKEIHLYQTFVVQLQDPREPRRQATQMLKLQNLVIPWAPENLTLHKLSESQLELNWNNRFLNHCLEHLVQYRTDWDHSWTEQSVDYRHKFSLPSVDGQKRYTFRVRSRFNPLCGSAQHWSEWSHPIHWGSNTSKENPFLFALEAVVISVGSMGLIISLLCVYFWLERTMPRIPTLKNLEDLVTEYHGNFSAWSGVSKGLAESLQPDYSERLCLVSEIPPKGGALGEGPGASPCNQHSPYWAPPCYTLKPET

B1: P-0471 (IL-2 L19Y/S125I Fc fusion protein) (Fc fusion)
chain: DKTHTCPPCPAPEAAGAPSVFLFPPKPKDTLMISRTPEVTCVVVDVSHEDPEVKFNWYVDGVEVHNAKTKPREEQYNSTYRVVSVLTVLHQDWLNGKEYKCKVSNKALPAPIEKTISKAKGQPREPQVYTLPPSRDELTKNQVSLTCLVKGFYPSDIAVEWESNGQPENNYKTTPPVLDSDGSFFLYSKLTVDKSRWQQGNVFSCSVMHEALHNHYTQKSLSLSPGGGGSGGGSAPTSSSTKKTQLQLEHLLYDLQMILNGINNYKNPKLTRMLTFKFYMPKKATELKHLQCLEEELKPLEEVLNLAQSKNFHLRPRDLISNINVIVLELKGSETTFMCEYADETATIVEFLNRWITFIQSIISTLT
B2: P-0364 (IL-2 D20E Fc fusion protein) (Fc fusion)
chain: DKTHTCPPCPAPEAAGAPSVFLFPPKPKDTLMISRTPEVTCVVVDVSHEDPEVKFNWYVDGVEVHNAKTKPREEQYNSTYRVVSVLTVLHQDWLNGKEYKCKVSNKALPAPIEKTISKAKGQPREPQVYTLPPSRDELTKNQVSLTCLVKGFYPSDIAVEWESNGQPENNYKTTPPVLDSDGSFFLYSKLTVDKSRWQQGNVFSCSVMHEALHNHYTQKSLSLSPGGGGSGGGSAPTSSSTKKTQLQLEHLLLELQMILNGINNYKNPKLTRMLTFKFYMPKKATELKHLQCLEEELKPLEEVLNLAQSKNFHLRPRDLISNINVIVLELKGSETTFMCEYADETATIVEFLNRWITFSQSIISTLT
B3: P-0493 (IL-2 D20E/S125I Fc fusion protein) (Fc fusion)
chain: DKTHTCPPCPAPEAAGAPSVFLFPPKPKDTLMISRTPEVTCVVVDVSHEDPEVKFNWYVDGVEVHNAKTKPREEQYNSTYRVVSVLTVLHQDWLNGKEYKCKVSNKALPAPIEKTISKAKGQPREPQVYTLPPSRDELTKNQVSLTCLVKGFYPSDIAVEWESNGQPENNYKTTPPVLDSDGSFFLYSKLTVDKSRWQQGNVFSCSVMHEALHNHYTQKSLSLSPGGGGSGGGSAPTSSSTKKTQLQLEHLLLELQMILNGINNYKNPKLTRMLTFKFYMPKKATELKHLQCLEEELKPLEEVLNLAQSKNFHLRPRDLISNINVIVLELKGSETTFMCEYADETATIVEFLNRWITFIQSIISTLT
B4: P-0447 (IL-2 L19H/Q126E Fc fusion protein) (Fc fusion)
chain: [human IgG1 Fc with L234A L235A G237A (EU numbers) skipped]GGGSGGGSAPTSSSTKKTQLQLEHLLHDLQMILNGINNYKNPKLTRMLTFKFYMPKKATELKHLQCLEEELKPLEEVLNLAQSKNFHLRPRDLISNINVIVLELKGSETTFMCEYADETATIVEFLNRWITFSESIISTLT
B5: P-0531 (IL-2 S125I Fc fusion protein; S125I equivalent of wild-type IL-2 Fc fusion protein) (Fc fusion)
chain: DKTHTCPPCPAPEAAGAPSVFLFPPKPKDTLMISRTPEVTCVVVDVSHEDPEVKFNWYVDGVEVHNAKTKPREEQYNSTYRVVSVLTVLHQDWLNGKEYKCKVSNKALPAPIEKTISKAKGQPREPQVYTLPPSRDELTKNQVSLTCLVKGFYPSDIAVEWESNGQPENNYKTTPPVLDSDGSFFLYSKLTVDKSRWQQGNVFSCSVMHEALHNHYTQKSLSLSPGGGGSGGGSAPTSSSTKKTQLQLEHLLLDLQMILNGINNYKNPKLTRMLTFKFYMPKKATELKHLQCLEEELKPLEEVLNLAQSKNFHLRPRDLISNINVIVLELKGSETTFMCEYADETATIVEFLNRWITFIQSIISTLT
notes: also called developability-improved wild-type IL-2 fusion protein
B6: P-0511 (IL-2 L19H/S125I/Q126E Fc fusion protein) (Fc fusion)
chain: [human IgG1 Fc with L234A L235A G237A (EU numbers) skipped]GGGSGGGSAPTSSSTKKTQLQLEHLLHDLQMILNGINNYKNPKLTRMLTFKFYMPKKATELKHLQCLEEELKPLEEVLNLAQSKNFHLRPRDLISNINVIVLELKGSETTFMCEYADETATIVEFLNRWITFIESIISTLT
B7: P-0419 (IL-2 L19Y/Q126E Fc fusion protein) (Fc fusion)
chain: [human IgG1 Fc with L234A L235A G237A (EU numbers) skipped]GGGSGGGSAPTSSSTKKTQLQLEHLLYDLQMILNGINNYKNPKLTRMLTFKFYMPKKATELKHLQCLEEELKPLEEVLNLAQSKNFHLRPRDLISNINVIVLELKGSETTFMCEYADETATIVEFLNRWITFSESIISTLT
B8: P-0495 (IL-2 L19Y/S125I/Q126E Fc fusion protein) (Fc fusion)
chain: [human IgG1 Fc with L234A L235A G237A (EU numbers) skipped]GGGSGGGSAPTSSSTKKTQLQLEHLLYDLQMILNGINNYKNPKLTRMLTFKFYMPKKATELKHLQCLEEELKPLEEVLNLAQSKNFHLRPRDLISNINVIVLELKGSETTFMCEYADETATIVEFLNRWITFIESIISTLT
B9: P-0480 (IL-2 L19H/Q126K Fc fusion protein) (Fc fusion)
chain: [human IgG1 Fc with L234A L235A G237A (EU numbers) skipped]GGGSGGGSAPTSSSTKKTQLQLEHLLHDLQMILNGINNYKNPKLTRMLTFKFYMPKKATELKHLQCLEEELKPLEEVLNLAQSKNFHLRPRDLISNINVIVLELKGSETTFMCEYADETATIVEFLNRWITFSKSIISTLT
B10: P-0512 (IL-2 L19H/S125I/Q126K Fc fusion protein) (Fc fusion)
chain: [human IgG1 Fc with L234A L235A G237A (EU numbers) skipped]GGGSGGGSAPTSSSTKKTQLQLEHLLHDLQMILNGINNYKNPKLTRMLTFKFYMPKKATELKHLQCLEEELKPLEEVLNLAQSKNFHLRPRDLISNINVIVLELKGSETTFMCEYADETATIVEFLNRWITFIKSIISTLT
B11: P-0250 (wild type IL-2 Fc fusion protein) (Fc fusion)
chain: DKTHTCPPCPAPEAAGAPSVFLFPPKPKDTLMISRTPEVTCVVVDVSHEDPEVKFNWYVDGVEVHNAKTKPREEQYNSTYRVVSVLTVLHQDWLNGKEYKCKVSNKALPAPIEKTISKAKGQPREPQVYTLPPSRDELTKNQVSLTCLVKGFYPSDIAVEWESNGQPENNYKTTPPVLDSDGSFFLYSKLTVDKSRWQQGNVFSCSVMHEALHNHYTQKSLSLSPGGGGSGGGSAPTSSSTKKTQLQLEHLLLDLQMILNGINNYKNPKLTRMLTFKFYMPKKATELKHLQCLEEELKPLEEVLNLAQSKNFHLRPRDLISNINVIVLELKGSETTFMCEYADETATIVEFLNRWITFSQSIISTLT
B12: P-0424 (IL-2 L19H Fc fusion protein) (Fc fusion)
chain: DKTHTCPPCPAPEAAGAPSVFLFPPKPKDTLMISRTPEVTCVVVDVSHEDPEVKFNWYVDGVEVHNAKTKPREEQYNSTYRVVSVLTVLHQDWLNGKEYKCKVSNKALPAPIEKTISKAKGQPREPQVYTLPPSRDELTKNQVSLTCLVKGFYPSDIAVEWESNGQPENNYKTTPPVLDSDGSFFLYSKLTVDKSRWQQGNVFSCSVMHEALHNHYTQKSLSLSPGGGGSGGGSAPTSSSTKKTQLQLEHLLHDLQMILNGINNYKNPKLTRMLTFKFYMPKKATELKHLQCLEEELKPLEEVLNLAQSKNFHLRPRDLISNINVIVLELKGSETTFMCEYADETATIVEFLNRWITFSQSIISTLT
B13: P-0491 (IL-2 L19H/S125I Fc fusion protein) (Fc fusion)
chain: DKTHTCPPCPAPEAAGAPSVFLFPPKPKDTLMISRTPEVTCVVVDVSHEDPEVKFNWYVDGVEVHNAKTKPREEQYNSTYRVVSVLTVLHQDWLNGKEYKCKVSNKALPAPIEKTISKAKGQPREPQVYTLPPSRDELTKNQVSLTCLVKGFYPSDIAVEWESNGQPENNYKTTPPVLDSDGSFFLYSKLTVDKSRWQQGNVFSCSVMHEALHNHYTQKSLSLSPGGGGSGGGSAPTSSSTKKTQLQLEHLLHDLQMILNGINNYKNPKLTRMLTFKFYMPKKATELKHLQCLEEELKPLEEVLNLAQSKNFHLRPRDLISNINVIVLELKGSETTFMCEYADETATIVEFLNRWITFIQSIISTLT
B14: P-0425 (IL-2 L19D Fc fusion protein) (Fc fusion)
chain: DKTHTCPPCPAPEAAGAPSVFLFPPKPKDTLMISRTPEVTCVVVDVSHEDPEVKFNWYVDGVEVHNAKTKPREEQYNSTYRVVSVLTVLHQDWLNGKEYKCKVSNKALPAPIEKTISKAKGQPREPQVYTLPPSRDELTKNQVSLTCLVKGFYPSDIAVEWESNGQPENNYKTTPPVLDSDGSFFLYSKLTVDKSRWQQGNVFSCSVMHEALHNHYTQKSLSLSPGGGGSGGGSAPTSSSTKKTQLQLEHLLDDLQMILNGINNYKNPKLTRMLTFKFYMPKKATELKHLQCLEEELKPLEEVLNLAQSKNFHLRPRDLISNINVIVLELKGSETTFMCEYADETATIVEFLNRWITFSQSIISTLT
B15: P-0492 (IL-2 L19D/S125I Fc fusion protein) (Fc fusion)
chain: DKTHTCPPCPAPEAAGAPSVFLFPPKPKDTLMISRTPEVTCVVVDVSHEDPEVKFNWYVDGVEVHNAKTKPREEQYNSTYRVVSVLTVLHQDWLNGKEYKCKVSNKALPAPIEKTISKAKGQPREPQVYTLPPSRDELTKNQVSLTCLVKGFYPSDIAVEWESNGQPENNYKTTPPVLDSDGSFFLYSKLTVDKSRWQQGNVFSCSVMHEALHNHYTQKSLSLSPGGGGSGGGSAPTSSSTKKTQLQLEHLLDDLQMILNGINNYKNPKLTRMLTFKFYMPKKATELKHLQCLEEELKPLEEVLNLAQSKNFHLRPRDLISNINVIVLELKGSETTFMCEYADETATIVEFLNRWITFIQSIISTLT
B16: P-0372 (IL-2 L19Y Fc fusion protein) (Fc fusion)
chain: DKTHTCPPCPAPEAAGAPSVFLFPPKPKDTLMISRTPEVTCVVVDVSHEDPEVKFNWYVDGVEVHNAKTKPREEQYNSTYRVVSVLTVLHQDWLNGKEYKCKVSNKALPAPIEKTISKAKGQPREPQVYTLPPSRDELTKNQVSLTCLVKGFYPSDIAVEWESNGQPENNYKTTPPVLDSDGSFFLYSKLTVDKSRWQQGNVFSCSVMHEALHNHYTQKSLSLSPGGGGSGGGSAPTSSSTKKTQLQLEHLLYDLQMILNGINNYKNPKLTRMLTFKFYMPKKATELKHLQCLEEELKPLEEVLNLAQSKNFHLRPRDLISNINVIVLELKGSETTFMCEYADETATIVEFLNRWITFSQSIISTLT
B17: P-0860 (IL-2 L19D/S125I/Q126E Fc fusion protein) (Fc fusion)
chain: [human IgG1 Fc with L234A L235A G237A (EU numbers) skipped]GGGSGGGSAPTSSSTKKTQLQLEHLLDDLQMILNGINNYKNPKLTRMLTFKFYMPKKATELKHLQCLEEELKPLEEVLNLAQSKNFHLRPRDLISNINVIVLELKGSETTFMCEYADETATIVEFLNRWITFIESIISTLT
B18: P-0864 (P-0511 with a 9 amino acid N-terminal deletion of IL-2; Fc fusion protein) (Fc fusion)
chain: [human IgG1 Fc with L234A L235A G237A (EU numbers) skipped]GGGSGGGSTQLQLEHLLHDLQMILNGINNYKNPKLTRMLTFKFYMPKKATELKHLQCLEEELKPLEEVLNLAQSKNFHLRPRDLISNINVIVLELKGSETTFMCEYADETATIVEFLNRWITFIESIISTLT

target: T1, high affinity trimeric IL-2 receptor …; assay: cell-based or functional assay

Binder	Treg EC50 (pM), STAT5 phosphorylation [pM]
B1	0.09
B2	3.61
B3	0.08
B4	1.71
B5	0.012
B6	0.76
B7	0.56
B8	~0.33
B9	0.24
B10	0.35
B11	0.049
B12	0.026
B13	0.029
B14	1
B15	~0.1
B16	0.05

target: T1, high affinity trimeric IL-2 receptor …; assay: cell-based or functional assay; remark: another data set of the same source

Binder	Treg cell responsiveness (STAT5 phosphorylation EC50) [nM]	fold reduction in Treg cell responsiveness compared to P-0511 [fold]	STAT5 phosphorylation in Treg cells (EC50) [nM]	fold activity impairment compared to P-0511 (STAT5 phosphorylation in Treg cells) [fold]
B6	0.00074	–	–	–
B17	6.23	8500	–	–
B18	–	–	0.018	25
